Assay results published in PubChem BioAssay AID488969 (Vanderbilt High Throughput Screening Facility, 2010).
Over roughly 110,000 compounds, “z-score” has its median near -0.1; the highest 2% begin near 2. This is one part of the list. Active and inactive are the calls of the source.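 How the source made its calls: active means z-score in the third read window above 3 or below -3; inactive means the rest.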

These compounds were tested against Metabotropic glutamate receptor 8 (Rattus norvegicus) (UniProt P70579) (assay: mGluR8 Gi/Go-coupled signaling modulation – cell-based, rat, thallium flux, HTS, primary screen (AID 488969)). Conditions: HEK293 rat mGluR8, GIRK (G protein-gated inwardly rectifying potassium channel) thallium flux, FluoZin2; at 10 µM; stronger effect = higher value; submaximal glutamate (EC20) added with thallium.
UniProt P70579, sequence (P70579 whole entry, looked up): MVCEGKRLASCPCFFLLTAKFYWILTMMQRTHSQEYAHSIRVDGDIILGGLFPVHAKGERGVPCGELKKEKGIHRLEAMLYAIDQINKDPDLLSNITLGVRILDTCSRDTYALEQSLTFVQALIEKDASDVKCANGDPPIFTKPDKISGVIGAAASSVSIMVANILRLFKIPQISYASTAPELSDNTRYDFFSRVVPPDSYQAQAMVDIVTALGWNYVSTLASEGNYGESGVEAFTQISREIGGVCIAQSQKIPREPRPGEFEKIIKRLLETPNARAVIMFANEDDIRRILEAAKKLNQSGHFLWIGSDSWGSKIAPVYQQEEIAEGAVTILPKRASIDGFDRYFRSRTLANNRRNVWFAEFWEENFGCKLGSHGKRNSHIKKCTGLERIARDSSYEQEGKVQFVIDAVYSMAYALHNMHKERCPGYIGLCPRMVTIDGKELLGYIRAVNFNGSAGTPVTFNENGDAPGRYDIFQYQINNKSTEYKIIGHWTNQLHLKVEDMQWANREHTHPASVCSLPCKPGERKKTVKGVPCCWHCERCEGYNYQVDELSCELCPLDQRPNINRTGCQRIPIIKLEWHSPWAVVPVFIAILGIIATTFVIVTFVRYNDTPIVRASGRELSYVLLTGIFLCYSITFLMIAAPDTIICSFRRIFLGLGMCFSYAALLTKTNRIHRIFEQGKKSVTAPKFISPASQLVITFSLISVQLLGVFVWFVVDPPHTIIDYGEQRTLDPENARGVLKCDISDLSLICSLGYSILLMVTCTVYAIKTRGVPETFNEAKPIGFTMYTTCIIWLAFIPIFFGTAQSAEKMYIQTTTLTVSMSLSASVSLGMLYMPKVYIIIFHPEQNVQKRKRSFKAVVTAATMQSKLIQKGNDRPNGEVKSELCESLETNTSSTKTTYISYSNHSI

Row | Compound | z-score
1 | CCn1c(=O)c(C(=O)CN2CCN(S(=O)(=O)c3cc(C)ccc3C)CC2)c(N)n(Cc2ccccc2)c1=O | -0.333
2 | CC(C)OC(=O)CSc1nnc(-c2ccc(Cl)cc2Cl)o1 | -0.122
3 | COCCCn1c(SCC(=O)N2CCc3ccccc32)nnc1-c1ccco1 | -0.129
4 | c1ccc(CCC2=NCCn3cccc32)cc1 | 0.441
5 | CCOC(=O)c1c(C)[nH]c2c1-c1ccccc1C(=O)C2=O | -0.0871
6 | COc1ccc(CCNC(=O)CSc2nc3ccccc3o2)cc1OC | 0.323
7 | COc1ccnc(Oc2ccccc2)c1C#N | -0.0884
8 | COc1ccc(/C=N/OC/C(O)=C(\C#N)c2nc3ccccc3[nH]2)cc1 | -0.288
9 | COc1ccc(N2C(=O)CC(Sc3nccc(C)n3)C2=O)cc1 (stereo unspecified) | 1.91
10 | Cc1cccc(-c2c3c(=O)n(C)c(=O)n(C)c3cn2C(C)(C)C)c1 | -0.413
11 | O=C(CNC(=O)c1ccccc1)OCc1nc2ccccc2s1 | -0.296
12 | CC1CCN(S(=O)(=O)c2cccc(C(=O)O)c2)CC1 | 0.000459
13 | Cc1ccc(C(=O)N/N=C/c2sc(=O)n(Cc3cccc(C(=O)O)c3)c2Cl)cc1 | -0.0929
14 | CNC(=O)c1ccccc1NC(=O)c1ccco1 | 0.283
15 | Cc1ccc(S(=O)(=O)N2CCN(C(=O)CN3CCCCC3)C2C(C)C)cc1 (stereo unspecified) | -0.0208
16 | C/C(=N\NC(=O)c1ccc(NS(=O)(=O)c2cccs2)cc1)c1ccc(C(C)(C)C)cc1 | -0.518
17 | Cc1[nH]c2ccccc2c1C1(O)C(=O)N(Cc2ccc3c(c2)OCO3)c2ccccc21 (stereo unspecified) | 0.17
18 | O=C(Nc1ccc(Cl)c([N+](=O)[O-])c1)C(NCCCO)c1ccccc1 (stereo unspecified) | 0.306
19 | COc1ccc(N2C(C(C)=O)=NN(c3ccccc3)C2c2cccs2)cc1 (stereo unspecified) | -1.15
20 | O=C(/C=C/Nc1cccc(C(F)(F)F)c1)C(F)(F)F | 0.118
21 | COc1cc(F)ccc1S(=O)(=O)N1CCN(C23CC4CC(CC(C4)C2)C3)CC1 | -0.185
22 | C/C(=N\NC(=O)COc1ccc(C(C)(C)C)cc1)c1ccc(OC(F)F)cc1 | 0.318
23 | Cc1ccc(OCCCC(=O)Nc2ccc(N3CCOCC3)cc2)cc1 | 0.0795

Row | Compound | z-score
24 | Cc1ccc2[nH]c(=O)c(C(c3nnnn3C3CCCC3)N3CCCc4ccccc43)cc2c1 (stereo unspecified) | 0.211
25 | OC(CN1C2=NCCN2c2ccccc21)c1ccc2c(c1)OCO2 (stereo unspecified) | -0.0192
26 | Cc1cc(OCCN2CCCCCC2)ccc1[N+](=O)[O-] | 0.379
27 | c1ccc(CCc2ccccc2-c2nc(-c3ccccn3)no2)cc1 | 0.258
28 | Cn1nc(C(=O)NNC(=O)COc2ccccc2)c2ccccc2c1=O | -0.0385
29 | CCOc1ccc(Cl)cc1CNCCNCCO | 0.172
30 | OC(CNCC1CCCO1)Cn1c2ccc(Br)cc2c2cc(Br)ccc21 (stereo unspecified) | active: 3.72
31 | O=C(c1ccccc1)c1cc([N+](=O)[O-])ccc1N1CCCC1 | -1.47
32 | Cc1ccc(NC(=O)c2ccco2)c(NC(=O)CN2C(=O)c3ccccc3C2=O)c1 | -0.313
33 | CC(C)(C)C(=O)N1CCC(O)(CS(=O)(=O)Cc2ccc(Cl)cc2)CC1 | -0.121
34 | Cc1ccc(-n2nc3c(c2NC(=O)c2ccc(OC(C)C)cc2)CS(=O)C3)cc1 (stereo unspecified) | -0.464
35 | N#Cc1ccc(C(=O)Nc2cc(S(=O)(=O)N3CCCC3)ccc2OCC(F)(F)F)cc1 | -0.245
36 | C=CCn1c(-c2cccn(Cc3ccc(Cl)cc3Cl)c2=O)n[nH]c1=S | -0.0632
37 | COc1cc(CC(=O)OCC(=O)c2ccc3c(c2)OCCO3)cc(OC)c1OC | -0.307
38 | O=C(NCCSc1ccccc1)c1ccc(Br)cc1 | -0.433
39 | N#C/C(=C/c1cc(Br)cs1)C(=O)NCC1CCCO1 (stereo unspecified) | -0.0741
40 | O=C(NCc1cccs1)c1cc(-c2cccc(Cl)c2)on1 | -1.01
41 | COc1ccccc1NC(=O)CSc1nnc(C)n1CC1CCCO1 (stereo unspecified) | 0.373
42 | COc1ccc(C2CC(c3ccc4ccccc4c3OC(C)=O)=NN2C(=O)/C=C/c2ccccc2)cc1 (stereo unspecified) | -0.112
43 | O=C(CSCc1ccc(Cl)cc1)Nc1ccc(-c2nnc(-c3ccccc3)o2)cc1 | -0.47
44 | O=C(NC(Cc1ccccc1)C(=O)O)c1ccc(S(=O)(=O)N2CCCCC2)cc1 (stereo unspecified) | -0.916
45 | COc1cc(/C=C(/NC(=O)c2ccccc2)C(=O)Nc2ccc(O)cc2)c([N+](=O)[O-])cc1OC | -0.493
46 | CN(C)c1nc(C(N)=O)nc(N2CCOCC2)n1 | 1.76

Row | Compound | z-score
47 | CCC(Sc1nc2ccccc2c(=O)[nH]1)C(=O)O (stereo unspecified) | 0.219
48 | COc1ccccc1CN(Cc1ccco1)S(=O)(=O)c1ccc(-n2cnnn2)c(OC)c1 | 0.201
49 | CCCC1=[N+](CC(=O)c2ccccc2)CCn2cccc21 | 0.0891
50 | O=C(O/N=C/c1ccc2c(c1)OCO2)c1ccccc1Cl | 0.0816
51 | Cc1cc(Nc2ccccc2)nn1C(=O)c1ccc(Cl)cc1 | -0.0996
52 | Cc1cc(C)n(CC(=O)N2N=C(C(F)F)CC2(O)C(F)F)n1 (stereo unspecified) | -0.229
53 | O=C(/C=C/c1ccccc1Cl)NCc1ccccc1 | -0.0585
54 | CCCC(C(=O)NC1CCCC1)N(Cc1ccc2c(c1)OCO2)C(=O)c1snc(C(N)=O)c1N (stereo unspecified) | -0.366
55 | Cc1ccc(-c2nnc(-n3ncc(C#N)c3N)c3ccccc23)cc1C | 0.49
56 | CCOC(=O)CC(=O)CSc1ncc(C(=O)OCC)c(N)n1 | 0.645
57 | Brc1ccccc1OCCOc1cccc2cccnc12 | -0.0856
58 | CC(C)(C)N=C1NN=C(c2cc3ccccc3o2)CS1 | -0.336
59 | CCCCn1c(SCC(=O)c2ccc(OCC)cc2)nc2cc(S(N)(=O)=O)ccc21 | -0.238
60 | O=C(NCc1ccccn1)c1c(Cl)cccc1Cl | 0.0849
61 | O=C(Nc1nccs1)c1c(O)c2cccc3c2n(c1=O)CCC3 | 0.325
62 | CN(CCO)c1ccc([N+](=O)[O-])cc1C(=O)O | 0.404
63 | O=C(NCc1ccccc1)c1ccc(C(=O)N(C2CCCCC2)C2CCCCC2)cc1 | 0.259
64 | Cc1cc(=O)[nH]c(S/C=C/c2ccccc2)n1 | -0.0122
65 | COC(=O)CSC1=C(C#N)C(c2sccc2C)CC(=O)N1 (stereo unspecified) | 0.174
66 | Cc1cc(=O)oc2cc(NC(=O)C3CC(=O)N(Cc4ccccc4)C3)ccc12 (stereo unspecified) | -0.14
67 | Cc1sc(NC(=S)NC(=O)C2CCCCC2)c(C(N)=O)c1C | -0.146
68 | O=C(CSc1nnc2ccccn12)Nc1cccc(-c2nc3ccccc3s2)c1 | -0.338
69 | CC(C(=O)OCC(=O)Nc1ccc2c(c1)OCO2)N1C(=O)c2ccccc2C1=O (stereo unspecified) | 0.35

Row | Compound | z-score
70 | COCCn1nnnc1C(c1ccccn1)N1CCN(c2cc(C)ccc2C)CC1 (stereo unspecified) | -0.362
71 | O=C(Cc1cc(=O)[nH]c(=O)[nH]1)NCCN1CCOCC1 | -0.206
72 | CCOC(=O)c1c(C)oc2c1c(C(c1cccnc1)N1CCOCC1)c(O)c1ccccc12 (stereo unspecified) | -0.155
73 | O=C(Cc1cccs1)Nc1ccc(-c2nnc(-c3ccccc3)o2)cc1 | -0.166
74 | COc1cc(NC(=O)Cn2nnc(-c3ccccc3N)n2)cc(OC)c1 | 0.794
75 | FC(F)(F)c1cc(-c2ccccc2)nc(-n2cncn2)n1 | 1.2
76 | O=C(CSc1nc2ccccc2[nH]1)Nc1nc(-c2ccc(Br)cc2)cs1 | -0.161
77 | COC(=O)c1cc(NC(=O)CSc2nnc(CN3CCOCC3)n2C)ccc1Cl | -0.506
78 | CC1Sc2n(c3ccccc3[n+]2C)N=C1c1ccccc1 (stereo unspecified) | -0.138
79 | CCOC(=O)c1sc(-c2ccccc2)cc1NC(=O)Nc1ccc([N+](=O)[O-])cc1 | -0.179
80 | CCC(CCC(=O)Nc1nncs1)C(=O)O (stereo unspecified) | 0.562
81 | CCOc1ccc(CC(=O)Nc2c(C(N)=O)oc3ccc(Br)cc23)cc1OCC | -0.0702
82 | O=C(NC1CCCC1)c1ccc(CSCc2ccccc2F)o1 | -1.68
83 | CC(C)(C)C(=O)[C@@H]1[C@@H]2C(=O)N(c3ccc4c(c3)OCCO4)C(=O)[C@@H]2C2c3ccccc3C=CN21 (stereo partly specified) | 0.117
84 | Cc1nn(-c2ccccc2)c2sc(C(=O)NNC(=O)COc3cccc4ccccc34)cc12 | 0.232
85 | Cn1c(SCc2nc3ccccc3n2CCO)nc2ccccc21 | -0.0415
86 | CCn1c(SCc2c(F)cccc2Cl)nnc1-c1ccco1 | -0.892
87 | O=[N+]([O-])c1ccc(-c2ccn[nH]2)o1 | 0.158
88 | CC(=O)Nc1ccc(OCC(O)Cn2nc(C)c(Br)c2C)cc1 (stereo unspecified) | 0.777
89 | COC(=O)c1cc(NC(=O)c2c(F)c(F)c(F)c(F)c2F)cc(C(=O)OC)c1 | -0.107
90 | Cc1ccc(-c2cc(C(=O)NCc3ccccn3)no2)cc1 | -0.475
91 | CC(C)c1ccc(C(CC(=O)c2ccc(Cl)cc2)C(=O)O)cc1 (stereo unspecified) | 0.0781
92 | C=CCNc1nc(NCCO)nc(N2CCCC2)n1 | -0.225

Row | Compound | z-score
93 | CCOc1ccccc1N1CCN(C(=O)Nc2ccc(F)c(Cl)c2)CC1 | -0.531
94 | CNS(=O)(=O)c1ccc(NC(=O)C2c3ccccc3Oc3ccccc32)cc1 | -0.0141
95 | CCOC(=O)c1c(C)n(C)c2c(C)cc(O)c(OC(=O)CC)c12 | 0.126
96 | CCCCn1c(=N)n(CC(=O)c2ccco2)c2ccccc21 | -0.268
97 | O=C(CCl)N1N=C(c2ccco2)CC1c1cccs1 (stereo unspecified) | -0.133
98 | CCN(CC)CCNC(=O)COc1ccc(Cl)cc1Cl | -0.304
99 | C/C(=N\NC(=S)NCc1ccccc1)c1ccc2ccccc2c1 | 2.12
100 | COC(=O)c1ccc(NC(=O)CSC2=NCCN2)cc1 | 0.00225
101 | CC(C)CNS(=O)(=O)c1ccc(CCC(=O)N2CCOCC2)cc1 | -0.54
102 | Cc1ccc(-n2[nH]c(=O)c3cccnc32)cc1 | 0.0489
103 | Cc1ccsc1C(=O)Nc1ccc2c(c1)OCCO2 | -0.163
104 | Cc1ccc(NC(=O)CSc2nc3ccccc3c(=O)n2CCCC(=O)N2CCCC2)cc1 | 0.165
105 | Cc1cccc(NC(=O)CCN2C(=O)C3C4CCC(C4)C3C2=O)c1C (stereo unspecified) | -0.197
106 | CN1CCN(C(=O)c2ccc3c(=O)n4c(nc3c2)CCCCC4)CC1 | 0.0326
107 | CC(=O)Nc1ccc(NC(=O)COC(=O)Cc2cccs2)cc1 | -0.0463
108 | COc1cc(C)c(C)cc1S(=O)(=O)N1CCCCC1c1cccnc1 (stereo unspecified) | -0.191
109 | O=C1OC(c2ccccc2)=NC12CC2c1ccc(Cl)cc1 (stereo unspecified) | -0.219
110 | CCOC(=O)C1CCN(S(=O)(=O)c2ccc(OCC)cc2)CC1 | 0.207
111 | CCSc1nc(N)c(C#N)c(-c2ccccc2Cl)c1C#N | -0.236
